From PMC4336329 (PLoS ONE, 2015)
In all, about 310,000 compounds went through this assay and about 14,000 (4.5%) showed an effect of 50% or more. Effects have a minus sign here. Some of the results follow.

Molecular target: human ether-à-go-go-related gene (hERG) potassium channel (human, UniProt Q12809)
Assay: primary screen, population patch clamp on CHO cells stably expressing hERG
Method: Briefly, Chinese hamster ovary (CHO) cells stably expressing the hERG channel were dislodged from tissue culture flasks and dispensed into PPC plates. […] During the recording, background leak currents were estimated by a 100 ms step to -80 mV from an initial holding potential of -70 mV and subtracted from the subsequent current measurement. The campaign was conducted in two phases using slight differences in recording protocol. In the first phase, the initial voltage pulse used a 100 ms step to -30 mV from a holding potential of -70 mV, a 2 s conditioning step to +25 mV, and a 2 s test step to -30 mV. During the second phase of the screen, the potential during the conditioning step was raised to +45 mV. In both phases of the campaign, a secondary voltage pulse was applied using the same parameters as the second phase initial pulse. The initial and secondary pulses were applied in the absence of compound, and upon application of 1 μM and 10 μM test concentrations. […]
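Also: peak tail current of the secondary pulse compared with the same well before compound.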

human ether-à-go-go-related gene (hERG) potassium channel, sequence (Q12809 whole entry, looked up): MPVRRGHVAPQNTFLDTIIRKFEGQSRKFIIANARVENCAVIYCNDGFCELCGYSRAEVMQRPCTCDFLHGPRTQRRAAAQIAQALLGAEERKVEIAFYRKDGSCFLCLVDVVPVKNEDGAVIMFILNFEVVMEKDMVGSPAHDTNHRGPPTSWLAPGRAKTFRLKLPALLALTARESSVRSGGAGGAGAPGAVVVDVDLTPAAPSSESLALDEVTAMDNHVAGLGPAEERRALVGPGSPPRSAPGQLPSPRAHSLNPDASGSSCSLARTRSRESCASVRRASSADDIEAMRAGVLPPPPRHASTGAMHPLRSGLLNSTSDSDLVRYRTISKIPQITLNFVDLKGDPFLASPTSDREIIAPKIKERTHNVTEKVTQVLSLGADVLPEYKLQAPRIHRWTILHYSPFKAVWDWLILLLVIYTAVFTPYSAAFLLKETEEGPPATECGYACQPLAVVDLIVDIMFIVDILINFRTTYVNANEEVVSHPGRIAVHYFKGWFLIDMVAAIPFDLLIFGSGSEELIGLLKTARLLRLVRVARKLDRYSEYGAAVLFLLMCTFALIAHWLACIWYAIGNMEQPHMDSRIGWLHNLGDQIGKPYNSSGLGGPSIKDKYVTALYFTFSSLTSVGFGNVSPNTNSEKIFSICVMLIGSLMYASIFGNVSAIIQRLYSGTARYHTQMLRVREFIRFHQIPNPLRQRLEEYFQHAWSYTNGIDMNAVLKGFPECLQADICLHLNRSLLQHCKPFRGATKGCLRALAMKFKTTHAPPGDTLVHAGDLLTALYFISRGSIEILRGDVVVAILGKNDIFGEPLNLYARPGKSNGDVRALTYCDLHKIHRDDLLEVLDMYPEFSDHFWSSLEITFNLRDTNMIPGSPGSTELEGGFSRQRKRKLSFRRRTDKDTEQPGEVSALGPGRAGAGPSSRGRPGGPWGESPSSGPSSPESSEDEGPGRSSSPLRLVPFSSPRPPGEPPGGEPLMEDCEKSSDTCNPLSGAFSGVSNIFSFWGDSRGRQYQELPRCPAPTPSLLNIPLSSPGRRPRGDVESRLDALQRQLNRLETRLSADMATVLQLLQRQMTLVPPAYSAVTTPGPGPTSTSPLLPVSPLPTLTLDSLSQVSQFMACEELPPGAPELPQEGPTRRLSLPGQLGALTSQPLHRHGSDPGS

SMILES	hERG current change (%, negative = inhibition) at 10uM [%]
Cc1nnc(SCC(=O)N2CCCC(C(=O)c3ccc(Cl)cc3)C2)o1 (centres unmarked)	-16
COc1ccc(NC(=O)C(=O)NCCC2CCCCN2S(=O)(=O)c2ccccc2)cc1 (centres unmarked)	-43.2
COc1ccc(OC)c(C(=O)c2coc3ccc(OC(C)=O)cc23)c1	2.92
COc1ccccc1C(=O)N/C(=C/c1ccco1)C(=O)Nc1ccc(C(=O)O)cc1	13.7
Cc1ccc(S(=O)(=O)N2CCC(n3nnc4cc(C)ccc43)CC2)cc1	-28.9
CCn1c(Cn2nnc(-c3ccccc3)n2)nnc1SCC(=O)Nc1ccc(C(C)=O)cc1	-1.99
COc1ccc(C2(C)NC(=O)N(CC(=O)NCc3ccccc3)C2=O)cc1OC (centres unmarked)	27.7
Cc1ccc(S(=O)(=O)c2c(N)n(/N=C/c3ccco3)c3nc4ccccc4nc23)cc1C	-16
CCN(CC(=O)Nc1ccc(OC)cc1)CC(=O)Nc1ccc(Br)cc1F	-67.4
CC1=CC2CC1C1C(=O)N(c3ccc(S(=O)(=O)Nc4nc(C)cc(C)n4)cc3)C(=O)C21 (centres unmarked)	25.2
N/C(COc1ccc(Cl)cc1Cl)=N\O	-1.25
COc1ccc2nc(NCCCNC(=O)c3cc(OC)c(OC)c(OC)c3)c(C#N)cc2c1	-11
CCOC(=O)CNC(=O)Cn1cnc2c(nnn2-c2ccc(OC)cc2)c1=O	-7.44
COC(=O)CSC1=C(C#N)C(c2ccsc2)CC(=O)N1 (centres unmarked)	12.1
CC[C@@H]1CC=C[C@H]2[C@H]1C(=O)N(Cc1ccccc1)[C@H]2c1ccc(OC)c(Cl)c1	10.6
COC(=O)c1ccc(N=CC2=C(O)CC(c3ccccc3)CC2=O)cc1 (centres unmarked)	11.9
O=C1CCN(S(=O)(=O)c2ccccc2)CCN1CCOCc1ccc(C(F)(F)F)cc1	-26.5
Cc1ccc(C(=O)CNc2cc(C)ccc2C)cc1	2.95
CCOC(=O)c1cc2sccc2n1CC(=O)C(C)(C)C	-28.6
CC(=O)c1ccc(-n2nncc2C)cc1	19.8
CCOC(=O)c1cnc(-n2nc(C)cc2C)nc1NC1CCCC1	-26.2
CC(=O)Nc1ccc(S(=O)(=O)N(C)CC(=O)OCC(=O)N(C)C2CCS(=O)(=O)C2)cc1 (centres unmarked)	18.8

SMILES	hERG current change (%, negative = inhibition) at 10uM [%]
CC1(C)CCCC2=C1CC1C(=O)N(c3ccccc3)C(=O)C1C2 (centres unmarked)	-11.9
Nc1nc2c(nc(SCc3ccccc3Br)n2C2OC(CO)C(O)C2O)c(=O)[nH]1 (centres unmarked)	34.9
CC(C)C[C@H](NS(=O)(=O)c1ccc(Br)cc1)C(=O)O	0.986
Cc1cccc(C(=O)N(Cc2cccs2)C2CCS(=O)(=O)C2)c1 (centres unmarked)	0.55
Cc1occc1C(=O)NNS(=O)(=O)c1ccc([N+](=O)[O-])cc1	10.5
COc1cc(/C=C2\COC/C(=C\c3ccc(O)c(OC)c3)C2=O)ccc1O	-2.68
Cc1ccccc1-c1nnc(-c2cccs2)o1	0.392
Cc1ccc(C(=O)NC(=S)Nc2ccc(-c3cc4ccccc4oc3=O)cc2)c(C)c1	27.1
O=C(NCc1cccs1)c1ccccc1F	-3.47
O=C(NNC(=O)C1CCN(S(=O)(=O)c2ccc(Cl)cc2)CC1)c1ccncc1	12.4
CCN1CCc2c(sc(NC(=O)Cc3ccccc3)c2C(N)=O)C1.Cl	-20.3
CC(C)(C)c1ccccc1NC(=O)COC(=O)CN1C(=O)NC2(CCCC2)C1=O	15.8
Cc1ccsc1C(C(=O)NC1CCCCC1)N(C(=O)Cc1cccs1)C1CC1 (centres unmarked)	3.07
Cc1ccc(C)c(-n2ccnc2SCC(=O)c2c(N)n(C3CC3)c(=O)[nH]c2=O)c1	-6.14
COc1ccccc1N1CCN(C2CCCN(Cc3cc(F)cc(F)c3)C2)CC1 (centres unmarked)	-6.62
Cc1cccc2c(C(=O)Nc3ccc(Br)cc3)cc(-c3ccccn3)nc12	12.9
CO/N=C(\Cn1ncc(N2CCOCC2)c(Br)c1=O)c1ccc(Cl)cc1	-19.7
CN1CCN(CCC(=O)N/N=C/c2cc3c(cc2[N+](=O)[O-])OCO3)CC1	9.64
O=C(Cn1[nH]c(=O)c2ccccc2c1=O)OCC(=O)N1CCCc2ccccc21	-6.41
CCOC(=O)c1oc2ccccc2c1CN1CCOCC1.Cl	-4.56
C=CCn1cnc2c(nnn2-c2ccc(Cl)cc2)c1=O	-37.9
COc1cccc(Cn2cc(C)cc(NC(=O)NCc3ccccc3)c2=O)c1	11.9
